Measured values: PubChem BioAssay AID1963576 (National Center for Advancing Translational Sciences (NCATS), 2024)
About 60 (0.1%) of roughly 46,000 compounds were called active. Roughly 3% stayed inconclusive and do not appear here. Calls follow the shape of the dose curve; as a rule, active = well fitted inhibition curve with a large enough effect; inconclusive = small, poorly fitted or top-dose-only effect; inactive = no such curve, though single readings can be large or run the other way. The list shows a part of the results.

test: Primary qHTS assay for Inhibitors of ovarian cancer metastasis using an organotypic tumor microenvironment (TME) model.; also: nearly all actives have a fitted effect of over 65% in size;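 as to Potency: count of GFP cancer cells still attached after washing and fixation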;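 as to activity change, negative = inhibition: plate controls were DMSO wells for no effect and tomatine positive control wells for full effect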; conditions: SKOV3ip1-GFP adhesion/invasion on 3D omental model, fluorescence; series mostly up to 45.8 µM; activity change, negative = inhibition: at the top concentration
Summary of the method: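 qHTS, 4-pt dose (0.36-46 umol/L); SKOV3ip1-GFP, 1,200 cells/well, no FBS; primary omental fibroblast/mesothelial co-culture 48 h pre-grown; 2 h RT + 16 h 37 C; PBS wash, 4% PFA; GFP count 488/509 nm.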
Potency is read from the fitted curve at half-maximal effect.

Structure (SMILES)	outcome	activity change, negative = inhibition	Potency
Cc1nnc(NC(=O)CSCc2cc(=O)c3cc(Cl)ccc3[nH]2)s1	inactive	–	–
CN(C)CCN(Cc1ccccc1)S(=O)(=O)c1ccc2[nH]c(=O)ccc2c1	–	inactive: 0.119%	–
O=C(c1cccn1-c1nnc(N2CCCC2)s1)N1CCN(c2ccccc2)CC1	inactive	–	–
O=C(Nc1cc2c(cc1C(=O)c1ccccc1)OCCO2)c1ccc(Br)cc1	–	inactive: 0.43%	–
COc1cc(-c2nc(Cn3nnc(C(=O)Nc4ccccc4)c3C)c(C)o2)cc(OC)c1OC	–	inactive: -12.7%	–
Cc1ccc(CNC(=O)c2cccn2-c2nnc(N3CCCCC3)s2)cc1	–	inactive: -14.6%	–
COc1ccccc1-n1ncc2c(=O)[nH]c(SCC(=O)Nc3ccc(Cl)cc3)nc21	inactive	–	–
Cc1c(C)c2c(cc(C)c3c(-c4ccccc4)coc32)oc1=O	–	inactive: 6.67%	–
O=C(NC1CC(=O)N(c2cccc(F)c2)C1)C1CCCC1 (configuration not stated)	–	inactive: 3.58%	–
COc1ccc2oc(=O)c(-c3csc(-c4ccc(Br)cc4)n3)cc2c1	–	inactive: -17.4%	–
Cc1ccccc1-c1nc(SCC(=O)NCc2ccco2)c2c(=O)n(C)c(=O)n(C)c2n1	–	inactive: -17.5%	–
CC(=O)N1CCOc2cc(S(=O)(=O)NCc3ccc(C)cc3)c(Cl)cc21	inactive	–	–
COc1ccc(-c2csc3nc(-c4ccccc4C)oc(=O)c23)cc1OC	–	inactive: 3.13%	–
Cc1ccc(NC(=O)C2CCN(S(=O)(=O)c3c(C)noc3C)CC2)c(C)c1	–	inactive: -3.29%	–
O=C(/C=C\c1ccc2c(c1)OCO2)NC1CC(=O)N(c2ccc(Cl)cc2)C1 (configuration not stated)	–	inactive: -6.25%	–
COc1ccc(C2(Nc3cccc(C(=O)O)c3C)C(=O)c3ccccc3C2=O)cc1	inactive	–	–
O=C(Cc1cccs1)NC1CC(=O)N(c2cccc(F)c2)C1 (configuration not stated)	–	inactive: -3.9%	–
CCOC(=O)c1c(C)oc2ncnc(N3CCN(c4ccccc4F)CC3)c12	–	inactive: -22.7%	–
CCSc1nc(-c2ccccc2OC)nc2c1Cc1c(CO)cnc(C)c1O2	inactive	–	–
COc1ccc(NC(=O)CSc2oc(-c3cccs3)nc2S(=O)(=O)c2ccc(C)cc2)c(OC)c1	–	inactive: 1.16%	–
CCOc1ccccc1NC(=O)c1cc(=O)c2ccc(C)cc2o1	–	inactive: -0.837%	–
Cc1ccc(OCC(=O)N(c2ccc(C)cc2)S(=O)(=O)c2ccc(Cl)cc2)cc1	–	inactive: 5.56%	–
Cc1ccc2c(CN3CCN(C(=O)c4ccc(F)cc4)CC3)cc(=O)oc2c1	inactive	–	–
CCCCS(=O)(=O)c1oc(-c2cccs2)nc1S(=O)(=O)c1ccccc1	–	–	active: 2510 nM
COc1cc2nc(NCCC(C)C)n3nc(-c4ccccc4)nc3c2cc1OC	–	inactive: -7.76%	–

Structure (SMILES)	outcome	activity change, negative = inhibition	Potency
Cc1cc(C)n2c(Nc3ccc(Cl)cc3)c(-c3ccsc3)nc2n1	inactive	–	–
COc1cccc(C(=O)Nc2ccc3nc(SCC(=O)N4CCOCC4)sc3c2)c1	–	inactive: -6.97%	–
Cn1c(=O)n(C)c2cc(NS(=O)(=O)c3ccc(F)cc3)ccc21	–	inactive: -6.17%	–
CC(C)(C)c1ccc(C(=O)NCCc2csc3nc(-c4ccccc4F)nn23)cc1	–	inactive: 3.35%	–
COc1ccc(C2CC(=O)NC(NC(=O)c3ccc(Br)cc3)=N2)c(OC)c1OC (configuration not stated)	–	inactive: -12.3%	–
CSCCC(NS(=O)(=O)c1ccc2c(c1)oc(=O)n2C)C(=O)N1CCN(c2cc(C)ccc2C)CC1 (configuration not stated)	–	inactive: -15%	–
COc1ccccc1CNC(=O)CN1C(=O)COc2ccc(S(=O)(=O)Nc3ccccc3)cc21	–	inactive: -20.4%	–
O=C(CS(=O)(=O)c1cccc2nsnc12)Nc1ccccc1	inactive	–	–
CCOc1ccccc1NC(=O)CSc1nc(=O)[nH]c2c1CCCC2	–	inactive: 2.01%	–
CCc1c2c(nc3ccc(OC(=O)N4CCC(N5CCCCC5)CC4)cc13)-c1cc3c(c(=O)n1C2)COC(=O)[C@]3(O)CC	–	inactive: -5.46%	–
COc1cc(/C=C/c2nc(C#N)c(N3CCCCCC3)o2)cc(OC)c1OC	–	inactive: 12.5%	–
CCCOc1cccc(NC(=O)c2c(-c3ccccc3Cl)noc2C)c1	–	inactive: 5.71%	–
CN(C(=O)CSc1nc2ccc(NC(=O)COc3ccc(Cl)cc3)cc2s1)c1ccccc1	–	inactive: -3.3%	–
O=S(=O)(Nc1ccccc1C(F)(F)F)c1ccc(N2CCCCS2(=O)=O)cc1	–	inactive: -1.15%	–
CN(Cc1ccccc1)C(=O)c1ccc2c(c1)N(Cc1ccccc1F)C(=O)c1ccccc1S2(=O)=O	inactive	–	–
O=C(Nc1cc(-c2nc3ccccc3s2)ccc1Cl)c1cc2ccccc2o1	–	inactive: -8.78%	–
COc1ccc(OC)c(NC(=O)Cn2cnc3ccc(S(=O)(=O)N4CCC(C)CC4)cc3c2=O)c1	inactive	–	–
CC(=O)N(Cc1cccnc1)c1nc2c(F)cc(F)cc2s1	–	inactive: 9.99%	–
Cc1cc(C)c2oc(C(=O)Nc3ccc(S(=O)(=O)N4CCCCC4)cc3)cc(=O)c2c1	–	inactive: 1.79%	–
Cc1ccc(Cl)cc1-n1c(=O)cc(N2CCN(c3ccc(F)cc3)CC2)[nH]c1=O	inactive	–	–
Cc1ccc(-c2nc3sc(CCNS(=O)(=O)c4cc(F)ccc4F)c(C)n3n2)cc1	–	inactive: -8.02%	–
COc1ccc(Cl)cc1NS(=O)(=O)c1ccc2[nH]c3c(c2c1)CCCC3	–	inactive: 0.821%	–
Cc1cccc(C)c1NC(=O)Cn1c(=O)n(Cc2ccccc2)c(=O)c2c(C)c(C(=O)N(C)C)sc21	inactive	–	–
O=C(O)Cn1nnc(-c2ccc(OCc3cccc(C(F)(F)F)c3)cc2)n1	–	inactive: 5.51%	–
Cn1c(=O)c2c(-c3ccc(Cl)cc3)n(Cc3ccccc3)cc2n(C)c1=O	–	inactive: 8.44%	–

Structure (SMILES)	outcome	activity change, negative = inhibition	Potency
COc1cccc(/C=C/c2nc(C#N)c(NCCN(C)C)o2)c1	–	inactive: 1.03%	–
COc1ccc(S(=O)(=O)NCCc2cc3ccc(C)c(C)c3[nH]c2=O)cc1	inactive	–	–
COc1ccc(Cn2c(CCC(=O)NCc3cccc(Cl)c3)nc3cccnc32)cc1	–	inactive: -12.1%	–
CCOC(=O)c1[nH]c(C)c(CCC(=O)NCc2ccc(N(C)C)cc2)c1C	–	inactive: -1.36%	–
O=C(CSc1nccn1Cc1ccco1)Nc1ccc(F)cc1	–	inactive: -22.5%	–
COc1ccc(CNC(=O)CSc2nc3ccccc3nc2Cc2ccccc2)cc1	–	inactive: -20.8%	–
COc1cccc(NC(=O)C2CCC(CNS(=O)(=O)c3ccc4c(c3)CC(C)N4C(C)=O)CC2)c1 (configuration not stated)	–	inactive: -0.395%	–
CCOC(=O)c1cc(S(=O)(=O)Nc2ccc(C)cc2Cl)[nH]n1	–	inactive: 85.5%	–
CCOc1ccc(-c2nn(CC(=O)NC3CCCC3)c3c2cnc2ccc(C)cc23)cc1	–	inactive: -8.36%	–
COc1ccc(CCNC(=O)c2ccc3c(c2)N(Cc2ccc(Cl)cc2)C(=O)c2ccccc2S3)cc1OC	–	inactive: -26.2%	–
Cc1ccc(NC(=O)CCN2CCN(CCO)CC2)cc1C	–	inactive: -0.997%	–
COc1cc(OC)c(NC(=O)c2cc(C)nc3c2c(C)nn3-c2ccc(C)cc2)cc1Cl	–	inactive: -14.6%	–
CC(C)CCNC(=O)Nc1ccc2c(c1)N(Cc1ccccc1)C(=O)c1ccccc1S2	inactive	–	–
Cc1ccccc1Nc1c(-c2ccc(Br)o2)nc2ccc(Cl)cn12	–	inactive: -9.19%	–
CCc1ccc(NC(=O)Cc2c(C(=O)O)c(C)cn2C)cc1	–	inactive: 19.1%	–
Cc1ccc(S(=O)(=O)CC(=O)Nc2sc3c(c2C(N)=O)CCCC3)cc1	inactive	–	–
CCc1ccc(Oc2c(C(F)(F)F)oc3c(CN4CCC(C)CC4)c(O)ccc3c2=O)cc1	–	inactive: 15.7%	–
CCOC(=O)Cc1ccc(NC(=O)N2CCC(CN3CCCCCC3)CC2)cc1	inactive	–	–
CCOc1ccccc1Nc1nnc(-c2cc3cc(OC)ccc3oc2=O)s1	–	inactive: 7.03%	–
CCN(CC)c1cc2c(cc1F)c(=O)c(S(=O)(=O)c1ccc(OC)cc1)cn2Cc1ccccc1	–	inactive: 6.28%	–
CC(=O)c1ccc(NC(=O)Cn2c(-n3nc(C)cc3C)nc(C)c(C)c2=O)cc1	–	inactive: 2.63%	–
Cc1ccc(NC(=O)CN2CCSc3ccc(S(=O)(=O)N4CCCC4)cc32)cc1	inactive	–	–
Cc1c(CCNC(=O)c2ccco2)sc2nc(-c3ccc(F)cc3)nn12	–	inactive: 2.72%	–
CCN(Cc1nc(-c2ccc(OC)cc2)oc1C)S(=O)(=O)c1ccc(C)cc1	–	inactive: 2.61%	–
COc1ccc(C(=O)N2CCC(C(=O)Nc3ccc(Cl)cc3)CC2)cc1	–	inactive: 1.88%	–

Structure (SMILES)	outcome	activity change, negative = inhibition	Potency
CCOc1ccc(S(=O)(=O)N(CC(=O)NCc2ccccc2OC)c2ccccc2)cc1	inactive	–	–
CCCCN(CC)CCCNC(=O)Cn1ncc2c3ccccc3n(C)c2c1=O	–	inactive: 4.4%	–
CCOc1ccc(OCC)c(NC(=O)Cn2nc(CC)n3c(cc4sccc43)c2=O)c1	inactive	–	–
Cc1cc(=O)n2nc(N(C)CC(=O)NCc3cccc(Br)c3)sc2n1	–	inactive: 16.4%	–
CCc1cccc(NC(=O)Cn2c(=O)n(CC(=O)NCCc3ccccc3)c(=O)c3ccccc32)c1	–	inactive: 0.308%	–
O=C1CC(c2ccccc2)c2c(n3ncnc3[nH]c2=O)N1 (configuration not stated)	–	inactive: -13.1%	–
CC(C)CCn1c(=O)c2sccc2n2c(CCCC(=O)NCCc3ccccc3)nnc12	inactive	–	–
Cc1nc2ccc(S(=O)(=O)N(CC(=O)Nc3cccc(F)c3)Cc3ccccc3)cc2s1	–	inactive: 4.59%	–
CC(C)N(C)C1CCN(S(=O)(=O)c2ccc3[nH]c(=O)ccc3c2)CC1	–	inactive: -9.92%	–
COc1ccc(NC(=O)Cn2c(SCc3ccc(F)cc3)nc3cccnc32)cc1OC	–	inactive: -8.97%	–
O=C(NCCc1ccc(Cl)cc1)c1ccc(CS(=O)Cc2ccccc2Cl)o1 (configuration not stated)	–	inactive: 0.896%	–
COc1ccccc1C(=O)N1CCC(c2noc(-c3ccc(S(=O)(=O)N4CCCC4)cc3)n2)CC1	inactive	–	–
COc1cccc(CNC(=O)c2oc3c(c2C)-c2nn(Cc4cccc(Cl)c4)cc2CC3)c1OC	inactive	–	–
OC[C@H]1O[C@@H](OCCc2ccc(O)cc2)[C@H](O)[C@@H](O)[C@H]1O	–	inactive: -6.64%	–
Cc1cc(C)cc(N2C(=O)CSC23C(=O)N(CC(=O)Nc2ccc(F)cc2F)c2ccccc23)c1 (configuration not stated)	inactive	–	–
O=C(Nc1ccc2nc(SCC(=O)N3CCCC3)sc2c1)c1cccc(Br)c1	inactive	–	–
Cc1ccc(C)c(CNC(=O)CCn2cccn2)c1	–	inactive: -6.53%	–
Oc1ccc([C@@H]2Oc3ccc(O)cc3[C@@H]3CCC[C@@H]32)cc1	–	inactive: 11.8%	–
Cc1cccc(NC(=O)C2CCN(c3nc4ccccc4[nH]3)CC2)c1C	–	inactive: -1.11%	–
CCOC(=O)c1oc2c(c1C)-c1nn(Cc3c(F)cccc3Cl)cc1CC2	–	inactive: 6.88%	–
CCCCc1nn2c(=O)cc(COC(=O)c3ccc(NC(=O)CCc4ccccc4)cc3)nc2s1	–	inactive: 8.65%	–
CCN(Cc1ccccc1)C(=O)Cn1c(=O)n(-c2ccc(Cl)cc2)c(=O)c2c(C)c(C(=O)N(C)C)sc21	–	inactive: -3.54%	–
